# Data published in the supplement of paper PMC8728848.
# The list shows a part of the results.
# Experiments:
# Test in all cases: glycan array binding signal (z-score within array); higher = stronger binding
# Conditions in all cases: glycan notation: IUPAC condensed, linker removed
# [1] = biological target: Fuc(a1-2)Gal
# How it was run: (§1)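 From the Consortium for Functional Glycomics database, 3228 arrays were curated, keeping only those whose protein sequence was available. Binding is given as a within-array Z-score averaged across arrays sharing a protein sequence and across linkers. Negative Z-scores can be read as non-binding.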
# [2] = biological target: Fuc(a1-2)Gal(b1-3)GalNAc
# How it was run: as §1
# [3] = biological target: Fuc(a1-2)Gal(b1-3)GalNAc(a1-3)[Fuc(a1-2)]Gal(b1-4)Glc
# How it was run: as §1
# [4] = biological target: Fuc(a1-2)Gal(b1-3)GalNAc(a1-3)[Fuc(a1-2)]Gal(b1-4)GlcNAc
# How it was run: as §1
# [5] = biological target: Fuc(a1-2)Gal(b1-3)GalNAc(b1-3)Gal
# How it was run: as §1
# [6] = biological target: Fuc(a1-2)Gal(b1-3)GalNAc(b1-3)Gal(a1-4)Gal(b1-4)Glc
# How it was run: as §1
# [7] = biological target: Fuc(a1-2)Gal(b1-3)GalNAc(b1-4)[Neu5Ac(a2-3)]Gal(b1-4)Glc
# How it was run: as §1
# [8] = biological target: Fuc(a1-2)Gal(b1-3)GlcNAc
# How it was run: as §1
# [9] = biological target: Fuc(a1-2)Gal(b1-3)GlcNAc(b1-2)Man(a1-3)[Fuc(a1-2)Gal(b1-3)GlcNAc(b1-2)Man(a1-6)]Man(b1-4)GlcNAc(b1-4)GlcNAc
# How it was run: as §1
# [10] = biological target: Fuc(a1-2)Gal(b1-3)GlcNAc(b1-3)Gal(b1-4)Glc
# How it was run: as §1
# [11] = biological target: Fuc(a1-2)Gal(b1-3)GlcNAc(b1-3)[Fuc(a1-3)[Gal(b1-4)]GlcNAc(b1-6)]Gal(b1-4)Glc
# How it was run: as §1
# [12] = biological target: Fuc(a1-2)Gal(b1-3)[Fuc(a1-4)]GlcNAc
# How it was run: as §1
# [13] = biological target: Fuc(a1-2)Gal(b1-3)[Fuc(a1-4)]GlcNAc(b1-2)Man(a1-3)[Fuc(a1-2)Gal(b1-3)[Fuc(a1-4)]GlcNAc(b1-2)Man(a1-6)]Man(b1-4)GlcNAc(b1-4)GlcNAc
# How it was run: as §1
# [14] = biological target: Fuc(a1-2)Gal(b1-3)[Fuc(a1-4)]GlcNAc(b1-3)[Fuc(a1-3)[Gal(b1-4)]GlcNAc(b1-6)]Gal(b1-4)Glc
# How it was run: as §1
# [15] = biological target: Fuc(a1-2)Gal(b1-3)[Fuc(a1-4)]GlcNAc(b1-3)[Gal(b1-4)GlcNAc(b1-6)]Gal(b1-4)Glc
# How it was run: as §1
# [16] = biological target: Fuc(a1-2)Gal(b1-4)Glc
# How it was run: as §1
# [17] = biological target: Fuc(a1-2)Gal(b1-4)Glc6S
# How it was run: as §1
# [18] = biological target: Fuc(a1-2)Gal(b1-4)GlcNAc
# How it was run: as §1
# [19] = biological target: Fuc(a1-2)Gal(b1-4)GlcNAc(b1-2)Man(a1-3)[Fuc(a1-2)Gal(b1-4)GlcNAc(b1-2)Man(a1-6)]Man(b1-4)GlcNAc(b1-4)GlcNAc
# How it was run: as §1
# [20] = biological target: Fuc(a1-2)Gal(b1-4)GlcNAc(b1-3)Gal(b1-4)GlcNAc
# How it was run: as §1
# [21] = biological target: Fuc(a1-2)Gal(b1-4)GlcNAc(b1-3)Gal(b1-4)GlcNAc(b1-3)Gal(b1-4)GlcNAc
# How it was run: as §1
# [22] = biological target: Fuc(a1-2)Gal(b1-4)GlcNAc(b1-3)GalNAc
# How it was run: as §1
# [23] = biological target: Fuc(a1-2)Gal(b1-4)GlcNAc6S
# How it was run: as §1
# [24] = biological target: Fuc(a1-2)Gal(b1-4)[Fuc(a1-3)]GlcNAc
# How it was run: as §1
# [25] = biological target: Fuc(a1-2)Gal(b1-4)[Fuc(a1-3)]GlcNAc(b1-2)Man(a1-3)[Fuc(a1-2)Gal(b1-4)[Fuc(a1-3)]GlcNAc(b1-2)Man(a1-6)]Man(b1-4)GlcNAc(b1-4)GlcNAc
# How it was run: as §1
# [26] = biological target: Fuc(a1-2)Gal(b1-4)[Fuc(a1-3)]GlcNAc(b1-3)Gal(b1-4)[Fuc(a1-3)]GlcNAc
# How it was run: as §1
# [27] = biological target: Fuc(a1-2)Gal(b1-4)[Fuc(a1-3)]GlcNAc(b1-3)Gal(b1-4)[Fuc(a1-3)]GlcNAc(b1-3)Gal(b1-4)[Fuc(a1-3)]GlcNAc
# How it was run: as §1
# [28] = biological target: Fuc(a1-2)Gal6S(b1-4)Glc
# How it was run: as §1
# [29] = biological target: Fuc(a1-2)Gal6S(b1-4)Glc6S
# How it was run: as §1
# [30] = biological target: Fuc(a1-2)Gal6S(b1-4)GlcNAc
# How it was run: as §1
binder,measurement,setting,value
"CLEC-1 (Homo sapiens), Q9NZH3 (protein) MQAKYSSTRDMLDDDGDTTMSLHSQASATTRHPEPRRTEHRAPSSTWRPVALTLLTLCLVLLIGLAAWGLLFFQYYQLSNTGQDTISQMEERLGNTSQELQSLQVQNIKLAGSLQHVAEKLCRELYNKAGAHRCSPCTEQWKWHGDNCYQFYKDSKSWEDCKYFCLSENSTMLKINKQEDLEFAASQSYSEFFYSYWTGLLRPDSGKAWLWMDGTPFTSELFHIIIDVTSPRSRDCVAILNGMIFSKDCKELKRCVCERRAGMVKPESLHVPPETLGEGD",glycan array binding signal (z-score),[1],-0.176
same,glycan array binding signal (z-score),[2],-0.181
same,glycan array binding signal (z-score),[3],-0.041
same,glycan array binding signal (z-score),[4],-0.28
same,glycan array binding signal (z-score),[5],0.57
same,glycan array binding signal (z-score),[6],-0.243
same,glycan array binding signal (z-score),[7],-0.266
same,glycan array binding signal (z-score),[8],0.087
same,glycan array binding signal (z-score),[9],6.09
same,glycan array binding signal (z-score),[10],-0.354
same,glycan array binding signal (z-score),[11],0.13
same,glycan array binding signal (z-score),[12],-0.021
same,glycan array binding signal (z-score),[13],-0.075
same,glycan array binding signal (z-score),[14],-0.562
same,glycan array binding signal (z-score),[15],-0.641
same,glycan array binding signal (z-score),[16],-0.068
same,glycan array binding signal (z-score),[17],-0.012
same,glycan array binding signal (z-score),[18],-0.336
same,glycan array binding signal (z-score),[19],-0.303
same,glycan array binding signal (z-score),[20],-0.112
same,glycan array binding signal (z-score),[21],-0.036
same,glycan array binding signal (z-score),[22],-0.563
same,glycan array binding signal (z-score),[23],-0.341
same,glycan array binding signal (z-score),[24],-0.135
same,glycan array binding signal (z-score),[25],1.72
same,glycan array binding signal (z-score),[26],-0.262
same,glycan array binding signal (z-score),[27],0.05
same,glycan array binding signal (z-score),[28],0.152
same,glycan array binding signal (z-score),[29],-0.817
same,glycan array binding signal (z-score),[30],-0.064
